From article PMC10511709
Positions count from the first letter of the chain named. Names may count otherwise. Read-outs that look alike come from different tables or passages of the source. No constants are given. Whether binding was seen depends on the method and setting. For some of these results: In cells and extracts the contact can be indirect. Some binding calls cover weakened binding; strength is not graded here. Tags and fused reporters may be left off the sequences shown. Each block holds one molecule with its values, some of them ahead of it.

Sequences of proteins named here, by UniProt entry; tags and fusion partners are left off. A change or cut given only in a name is not applied to a line headed by its entry.
UniProt P28188: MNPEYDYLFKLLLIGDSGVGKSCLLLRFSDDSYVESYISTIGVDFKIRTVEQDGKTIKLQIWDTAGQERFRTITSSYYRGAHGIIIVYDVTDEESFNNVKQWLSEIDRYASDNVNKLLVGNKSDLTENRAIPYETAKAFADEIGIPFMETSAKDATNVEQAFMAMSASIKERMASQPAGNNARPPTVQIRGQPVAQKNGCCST
UniProt O04157: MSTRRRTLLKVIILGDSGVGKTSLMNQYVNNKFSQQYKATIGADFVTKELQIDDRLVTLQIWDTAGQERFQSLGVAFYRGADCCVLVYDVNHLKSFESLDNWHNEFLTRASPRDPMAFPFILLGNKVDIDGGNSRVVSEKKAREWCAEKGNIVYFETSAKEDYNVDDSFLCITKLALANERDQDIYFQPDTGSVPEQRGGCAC
UniProt Q9LS94: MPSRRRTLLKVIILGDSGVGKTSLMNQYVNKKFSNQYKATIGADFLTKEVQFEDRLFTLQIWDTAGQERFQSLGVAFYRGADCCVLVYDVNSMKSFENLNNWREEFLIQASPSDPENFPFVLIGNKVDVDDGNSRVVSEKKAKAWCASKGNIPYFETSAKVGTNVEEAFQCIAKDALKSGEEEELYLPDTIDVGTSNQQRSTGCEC

Columns and labels:
[1] = biological target: T1, NET4B, full length, yeast two-hybrid fusion (Arabidopsis thaliana) (UniProt Q84VY2); assay: two-hybrid; one-on-one mating; pGBKT7 baits in AH109, pGADT7 preys in Y187; growth on SD -WLH + 2.5 mM 3AT at 30 °C for 5-7 days; empty vectors as controls
T1 sequence: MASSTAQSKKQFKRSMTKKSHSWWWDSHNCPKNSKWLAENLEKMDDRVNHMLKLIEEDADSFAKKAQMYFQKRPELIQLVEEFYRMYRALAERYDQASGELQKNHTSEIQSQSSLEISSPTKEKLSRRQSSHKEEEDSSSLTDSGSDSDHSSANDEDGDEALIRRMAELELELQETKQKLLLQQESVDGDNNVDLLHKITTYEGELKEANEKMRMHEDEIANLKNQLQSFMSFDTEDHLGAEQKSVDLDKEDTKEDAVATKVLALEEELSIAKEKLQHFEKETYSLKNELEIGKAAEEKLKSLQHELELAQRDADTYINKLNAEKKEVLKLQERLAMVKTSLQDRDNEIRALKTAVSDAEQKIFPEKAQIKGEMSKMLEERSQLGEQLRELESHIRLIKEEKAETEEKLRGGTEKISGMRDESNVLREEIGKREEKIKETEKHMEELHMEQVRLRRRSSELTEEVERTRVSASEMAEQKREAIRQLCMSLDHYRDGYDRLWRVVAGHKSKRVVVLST

[2] = biological target: T2, NET4A, full length, yeast two-hybrid fusion (Arabidopsis thaliana) (UniProt F4KEW8); assay: as above
T2 sequence: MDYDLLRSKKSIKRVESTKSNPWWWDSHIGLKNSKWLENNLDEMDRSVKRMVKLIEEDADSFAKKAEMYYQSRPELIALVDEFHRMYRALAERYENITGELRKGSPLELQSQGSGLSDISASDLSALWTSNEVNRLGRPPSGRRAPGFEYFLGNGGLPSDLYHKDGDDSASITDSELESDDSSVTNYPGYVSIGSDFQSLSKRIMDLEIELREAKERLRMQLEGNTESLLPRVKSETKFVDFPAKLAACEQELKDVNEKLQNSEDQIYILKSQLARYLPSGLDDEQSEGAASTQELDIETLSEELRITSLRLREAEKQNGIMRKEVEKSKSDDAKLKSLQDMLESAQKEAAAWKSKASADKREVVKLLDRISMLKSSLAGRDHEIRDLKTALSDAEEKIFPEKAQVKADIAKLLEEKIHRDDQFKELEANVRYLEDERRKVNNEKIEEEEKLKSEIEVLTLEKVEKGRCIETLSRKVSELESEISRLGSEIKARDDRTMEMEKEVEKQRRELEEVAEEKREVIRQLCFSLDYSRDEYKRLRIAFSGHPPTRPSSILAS

[3] = biological target: T3, NET4A-GFP (Arabidopsis thaliana) (UniProt F4KEW8); assay: co-IP; fusion proteins co-expressed in N. benthamiana leaves; GFP-Trap beads, 3 h at 4 °C; extraction buffer 50 mM Tris HCl pH 7.5, 50 mM NaCl, 1% IGEPAL; blots with GFP and RFP antibodies
T3 sequence: T2 sequence

[4] = biological target: T4, RABA5c, yeast two-hybrid bait (Arabidopsis thaliana) (UniProt P28187); assay: two-hybrid; one-on-one mating; pGBKT7 baits in AH109, pGADT7 preys in Y187; growth on SD -WLH + 2.5 mM 3AT at 30 °C for 5-7 days; empty vectors as controls
T4 sequence: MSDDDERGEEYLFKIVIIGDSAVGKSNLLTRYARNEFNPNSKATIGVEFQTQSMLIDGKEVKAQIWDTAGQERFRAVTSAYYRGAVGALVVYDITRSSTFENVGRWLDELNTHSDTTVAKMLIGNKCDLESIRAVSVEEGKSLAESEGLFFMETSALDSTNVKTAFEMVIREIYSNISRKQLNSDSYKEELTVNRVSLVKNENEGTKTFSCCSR

[5] = biological target: T5, RABF2a, yeast two-hybrid bait (Arabidopsis thaliana) (UniProt P31582); assay: as above
T5 sequence: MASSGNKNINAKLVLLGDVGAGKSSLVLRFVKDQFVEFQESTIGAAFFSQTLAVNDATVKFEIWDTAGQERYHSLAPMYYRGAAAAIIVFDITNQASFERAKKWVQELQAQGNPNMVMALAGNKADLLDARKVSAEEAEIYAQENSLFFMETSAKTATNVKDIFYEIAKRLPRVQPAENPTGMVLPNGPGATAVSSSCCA

[6] = biological target: T1, NET4B, full length, yeast two-hybrid fusion (Arabidopsis thaliana); assay: as above; remark: listed apart in the source
[7] = biological target: RABD2a, yeast two-hybrid bait (Arabidopsis thaliana) (UniProt P28188); assay: as above
[8] = biological target: T2, NET4A, full length, yeast two-hybrid fusion (Arabidopsis thaliana); assay: as above; remark: listed apart in the source
[9] = biological target: T3, NET4A-GFP (Arabidopsis thaliana); assay: co-IP; fusion proteins co-expressed in N. benthamiana leaves; GFP-Trap beads, 3 h at 4 °C; extraction buffer 50 mM Tris HCl pH 7.5, 50 mM NaCl, 1% IGEPAL; blots with GFP and RFP antibodies; remark: listed apart in the source
[10] = biological target: T3, NET4A-GFP (Arabidopsis thaliana); assay: FRET or BRET; FRET-FLIM; donor NET4A-GFP, acceptor NET4B-RFP, co-expressed in N. benthamiana leaf epidermal cells; reduction of donor lifetime
[11] = biological target: T6, NET4B residues 464-511 (RABG3 binding domain), yeast two-hybrid bait (Arabidopsis thaliana) (UniProt Q84VY2); assay: two-hybrid; one-on-one mating; pGBKT7 baits in AH109, pGADT7 preys in Y187; growth on SD -WLH + 2.5 mM 3AT at 30 °C for 5-7 days; empty vectors as controls
T6 sequence: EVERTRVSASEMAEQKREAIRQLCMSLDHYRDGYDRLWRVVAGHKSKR

Molecule: RFP-RABG3b, wild type (from UniProt O04157 1-203)
- binding [3]: binds

B1: NET4B, full length, yeast two-hybrid fusion (protein, UniProt Q84VY2 1-517)
chain: T1 sequence
- binding [4]: no binding
- binding [5]: no binding
- binding [6]: binds
- binding [7]: no binding
- binding [8]: binds

B3: NET4A, full length, yeast two-hybrid fusion (protein, UniProt F4KEW8 1-558)
chain: T2 sequence
- binding [4]: no binding
- binding [5]: no binding
- binding [7]: no binding
- binding [8]: binds

B5: DN-RABG3a (dominant negative, T22N), yeast two-hybrid fusion (protein, UniProt Q948K8 1-206)
chain: MATRRRTLLKVIVLGDSGVGKNSLMNQYVHKKFSMQYKATIGADFVTKELQIGEKLVTLQIWDTAGQERFQSLGAAFYRGADCCALVYDVNVLRSFDNLETWHEEFLKQASPSDPKTFPFIVLGNKIDVDGGSSRVVSDKKAADWCASNGNIPYFETSAKDDFNVDEAFLTIAKTALANEHEQDIYFQGIPDAVTENEPKGGGCAC
- binding [6]: no binding
- binding [8]: no binding

Continued, values first:

- binding [1]: binds
- binding [2]: binds
Molecule: CA-RABG3f (constitutive active, Q67L), yeast two-hybrid fusion (from UniProt Q9LS94 1-206)

- binding [1]: no binding
- binding [2]: no binding
Molecule: DN-RABG3f (dominant negative, T22N), yeast two-hybrid fusion (from UniProt Q9LS94 1-206)

- binding [1]: binds
- binding [2]: binds
Molecule: RABG3f, wild type, yeast two-hybrid fusion (from UniProt Q9LS94 1-206)

- binding [9]: binds
- binding [10]: binds
B2: NET4B-RFP (protein, UniProt Q84VY2 1-517)
chain: T1 sequence

- binding [11]: binds
- binding [6]: binds
- binding [8]: binds
B4: CA-RABG3a (constitutive active, Q67L), yeast two-hybrid fusion (protein, UniProt Q948K8 1-206)
chain: B5 chain with N22T, Q67L

- binding [6]: binds
- binding [8]: binds
B6: RABG3a, wild type, yeast two-hybrid fusion (protein, UniProt Q948K8 1-206)
chain: B5 chain with N22T
